Among all 310,000 compounds or so, about 18,000 (5.8%) were called active. This list was built around the results that the source calls inconclusive (neither active nor inactive); the mix of calls is not that of the screen. Calls follow the shape of the dose curve; as a rule, active = well fitted inhibition curve with a large enough effect; inconclusive = small, poorly fitted or top-dose-only effect, or another doubt; inactive = no such curve, though single readings can be large or run the other way. Potencies of inconclusive entries are left out as doubtful fits.
Experiment: Primary qHTS for delayed death inhibitors of the malarial parasite plastid, 48 hour incubation
Conditions: P. falciparum luciferase growth in erythrocytes; series mostly up to 28.7 µM
In short: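 Luciferase-expressing parasites in RBCs, 2% Hct / 0.1% parasitemia final; RPMI 1640 + 0.5% Albumax; 37 C, 5% CO2, one generation; luminescence read-out, lower signal = inhibition.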
Potency is read from the fitted curve at half-maximal effect; tags tell the direction and shape of the fitted curve.

SMILES | Potency
O=C(O)c1cnn2c1NC(c1cccs1)CC2C(F)(F)F (stereo not given) | inactive
CC1CC(=O)c2cnc(Nc3ccccc3)nc2C1 (stereo not given) | inactive
c1ccc(CCNc2nc(-c3ccccn3)nc3ccccc23)cc1 | active: 1.04 µM
COC(=O)C1=C(C)N(Cc2ccc3c(c2)OCO3)C(=O)C1 | inactive
C=CCn1c(=S)[nH]c2cc(C(=O)N3CCN(c4ccccc4OC)CC3)ccc2c1=O | inconclusive [inhibitor, partial curve]
COc1ccc(NC(=O)C(Sc2nnc(-c3ccncc3)n2-c2ccccc2C)c2ccccc2)cc1Cl (stereo not given) | active: 8.28 µM
COc1ccccc1CN1CCC(n2nccc2NC(=O)CCCc2ccccc2)CC1 | inconclusive [inhibitor, partial curve, poor fit]
COc1ccc(OC)c(-c2csc(NC(=O)Cc3ccccc3OC)n2)c1 | inconclusive [inhibitor, single point]
CC(=O)c1cccc(NC(=S)N2CCc3ccccc32)c1 | inactive
CCCCC[C@H](O)/C=C/[C@H]1[C@H](O)CC(=O)[C@@H]1C/C=C\CCCC(=O)O | inactive
CCOC(=O)C(=CNc1ccc(C(O)(C(=O)OCC)C(F)(F)F)cc1C)C(=O)OCC (stereo not given) | inconclusive [inhibitor, single point]
O=C(NCC1CCN(C(=O)c2ccc([N+](=O)[O-])cc2)CC1)C(=O)Nc1ccccc1 | inactive
Cc1cccc(C(=O)Nc2cccc(C(=O)N/N=C/c3ccc4c(c3)OCO4)c2)c1 | inactive
CCO[C@@H]1OC(C(=O)O)=C[C@H](C2CC2)[C@H]1CCCO | inactive
COc1ccc(C(=O)NNS(=O)(=O)c2ccccc2)cc1OC | inactive
CSC1=NCCN1C(=O)C12CC3CC(CC(C3)C1)C2 | active: 9.28 µM
C=C1CC2C(CC[C@]3(C)C(=O)CCC23)[C@]2(C)C=CC(=O)C=C12 (stereo not given in full) | inconclusive [inhibitor, single point]
CCOC(=O)c1cc(-c2ccccc2)sc1NC(=O)COC | inactive
CC1Cc2nc(SCC(=O)Nc3nc4ccccc4s3)n(C)c(=O)c2S1 (stereo not given) | inconclusive [inhibitor, single point]
O=C(COc1ccccc1)OCC(=O)N1CCCc2ccccc21 | inactive
COc1cc(/C=N/NC(=O)C[n+]2ccccc2)cc(OC)c1OC | inactive
COc1ccccc1/C=N/n1c(N)c(S(=O)(=O)c2cccs2)c2nc3ccccc3nc21 | active: 6.57 µM
Fc1ccc2[nH]c3c(N4CCN(Cc5ccc6c(c5)OCO6)CC4)ncnc3c2c1 | active: 5.22 µM
O=[N+]([O-])c1ccc2[nH]c3nc4ccccc4nc3c2c1 | inactive
O=C(CCN1C(=O)NC2(CCCC2)C1=O)Nc1ccc(-c2nc3ccccc3s2)cc1 | inactive

SMILES | Potency
Fc1ccc(-c2csc(/C=C/c3ccc4c(c3)OCO4)n2)cc1 | inactive
CCOc1ccc2oc(C(=O)NCc3ccccc3CN3CCCC3)c(C)c2c1 | active: 9.28 µM
CCC(=O)NC(=S)Nc1ccc(NC(=O)c2ccco2)c(Cl)c1 | inactive
CCOc1ccc(S(=O)(=O)NCCC(=O)N2CCN(c3ccccc3O)CC2)cc1 | inconclusive [inhibitor, single point]
O=C1c2ccccc2C(=O)N1c1cccc2ccccc12 | inactive
O=C(Nc1ccc(N2CCCC2)c(S(=O)(=O)Nc2cccc(C(F)(F)F)c2)c1)c1cccs1 | inconclusive [inhibitor, partial curve, poor fit]
O=C(N/N=C/c1cn(-c2ccccc2)nc1-c1cc2ccccc2o1)c1ccccc1Br | inactive
COc1ccc(-n2c(SCC(=O)Nc3nc(C)cs3)nnc2-c2ccoc2C)cc1 | active: 5.86 µM
CCCCCCN(C(=O)CCCCCN1C(=O)NC(c2ccc(-c3ccccc3)cc2)C(C(=O)OCc2ccccc2)=C1C)C(C(=O)NCCCC)c1ccc(-c2ccccc2)cc1 (stereo not given) | active: 0.828 µM
Cc1ccc(CN2CCN(C(=O)c3ccco3)CC2)cc1 | inconclusive [inhibitor, partial curve, poor fit]
CCCC12CN3CC(C)(CN(C1)C31C(=O)Nc3ccc(C)cc31)C2=O (stereo not given) | inactive
COc1cc(S(=O)(=O)N2CCOCC2)cc(C(=O)OCC(=O)NC2CCCCC2)c1OC | inconclusive [inhibitor, partial curve]
CSc1oc(-c2ccco2)nc1S(=O)(=O)c1ccc(C)cc1 | inconclusive [inhibitor, partial curve]
O=C(NC(=S)Nc1ccc(N2CCOCC2)c(Cl)c1)c1cccs1 | inconclusive [inhibitor, single point]
CSCC[C@H](NC(=O)[C@@H]1Cc2c([nH]c3ccccc23)C2c3ccccc3C(=O)N21)C(=O)NCC1CCCO1 (stereo not given in full) | inconclusive [inhibitor, partial curve, poor fit]
CCCC(=O)c1ccc(N2CCN(C(=O)c3ccc(Br)cc3)CC2)c(F)c1 | inactive
Cc1cc(C)nc(/N=C(\N)Nc2ccc(S(=O)(=O)Nc3nccc(C)n3)cc2)n1 | inactive
Cc1cc(OCCCn2cnc3ccccc3c2=O)ccc1[N+](=O)[O-] | inactive
Clc1cccc(N2CCN(Cc3ccc(Br)o3)CC2)c1 | inactive
Cn1c(/C=C/c2cccc(Br)c2)nc2ccccc2c1=O | inconclusive [inhibitor, partial curve, poor fit]
CC(C)c1ccc(CN2CCN(C(=O)CCl)CC2)cc1 | inconclusive [inhibitor, partial curve]
O=C(NNc1c2ccccc2nc2ccccc12)c1ccccc1Cl | inconclusive [inhibitor, single point]
COc1ccc(O)c(/C=N/NC(=S)NCCc2ccccc2)c1 | active: 2.62 µM
Cc1ccc(Cn2nnc3c(=O)n(CC(=O)N4CCN(c5ccccc5)CC4)cnc32)cc1 | inconclusive [inhibitor, single point]
CCOC(=O)c1ccc(Nc2nc(C)cc(C)c2C#N)cc1 | inconclusive [inhibitor, single point]
